T1: Fc (kih)-IFNGR1/2 heterodimer (P1AF8126) (UniProt P15260 18-245; P38484 28-247, limits assumed)
T1 construct: Used as the soluble analyte in SPR; also called Fc (kih)-IFNGR1/R2 heterodimer; IFNGR1/R2; not shown: Fc (kih) chain
T1 sequence (looked up) 1: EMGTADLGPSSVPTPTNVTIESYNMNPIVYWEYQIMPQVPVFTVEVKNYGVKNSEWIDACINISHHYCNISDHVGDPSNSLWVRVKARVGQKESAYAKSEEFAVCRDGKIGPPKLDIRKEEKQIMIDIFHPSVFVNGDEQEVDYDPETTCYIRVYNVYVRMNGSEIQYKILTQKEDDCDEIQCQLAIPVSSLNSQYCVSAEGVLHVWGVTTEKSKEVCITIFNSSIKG
T1 sequence (looked up) 2: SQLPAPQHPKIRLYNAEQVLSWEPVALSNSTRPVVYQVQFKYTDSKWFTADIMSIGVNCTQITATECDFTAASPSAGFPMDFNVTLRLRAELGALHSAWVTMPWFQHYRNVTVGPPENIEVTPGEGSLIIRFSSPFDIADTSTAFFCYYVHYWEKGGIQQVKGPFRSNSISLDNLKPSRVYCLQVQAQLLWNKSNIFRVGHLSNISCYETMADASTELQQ

T2: Fc (kih)-IFNGR1 monomer (P1AF7104) (UniProt P15260 18-245)
T2 construct: Used as the soluble analyte in SPR; not shown: Fc (kih) part
T2 sequence (P15260 whole entry, species assumed, looked up): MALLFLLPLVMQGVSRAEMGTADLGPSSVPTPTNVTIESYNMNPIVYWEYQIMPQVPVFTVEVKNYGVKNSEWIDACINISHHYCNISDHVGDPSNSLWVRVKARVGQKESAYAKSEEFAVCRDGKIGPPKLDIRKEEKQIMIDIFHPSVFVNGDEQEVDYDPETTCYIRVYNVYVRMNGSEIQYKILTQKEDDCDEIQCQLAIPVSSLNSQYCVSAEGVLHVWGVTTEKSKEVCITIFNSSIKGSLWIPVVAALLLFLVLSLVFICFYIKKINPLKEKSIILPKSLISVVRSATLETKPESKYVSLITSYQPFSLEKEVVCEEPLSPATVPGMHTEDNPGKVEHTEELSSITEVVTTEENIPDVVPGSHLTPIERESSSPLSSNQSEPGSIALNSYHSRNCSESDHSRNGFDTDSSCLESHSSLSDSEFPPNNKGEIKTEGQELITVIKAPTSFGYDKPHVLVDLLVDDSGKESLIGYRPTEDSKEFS

B1: P1AF9464 (anti-FAP 4B9 IgG-IFNG, C-terminus AKTGSRKRP) (other)
heavy: EVQLLESGGGLVQPGGSLRLSCAASGFTFSSYAMSWVRQAPGKGLEWVSAIIGSGASTYYADSVKGRFTISRDNSKNTLYLQMNSLRAEDTAVYYCAKGWFGGFNYWGQGTLVTVSSASTKGPSVFPLAPSSKSTSGGTAALGCLVKDYFPEPVTVSWNSGALTSGVHTFPAVLQSSGLYSLSSVVTVPSSSLGTQTYICNVNHKPSNTKVDKKV[human IgG1 Fc with changes skipped]GGGGSGGGGSGGGGSQDPYVKEAENLKKYFNAGHSDVADNGTLFLGILKNWKEESDRKIMQSQIVSFYFKLFKNFKDDQSIQKSVETIKEDMNVKFFNSNKKKRDDFEKLTNYSVTDLNVQRKAIHELIQVMAELSPAAKTGSRKRP
light: EIVLTQSPGTLSLSPGERATLSCRASQSVTSSYLAWYQQKPGQAPRLLINVGSRRATGIPDRFSGSGSGTDFTLTISRLEPEDFAVYYCQQGIMLPPTFGQGTKVEIKRTVAAPSVFIFPPSDEQLKSGTASVVCLLNNFYPREAKVQWKVDNALQSGNSQESVTEQDSKDSTYSLSSTLTLSKADYEKHKVYACEVTHQGLSSPVTKSFNRGEC
notes: Antibody-cytokine fusion, IgG1 P329G LALA, IFNG variant on the heavy chain C-terminus via (G4S)3; S in position 1 of KRKR; also called PIAF9464
B2: P1AF9465 (anti-FAP 4B9 IgG-IFNG, C-terminus AKTGKRSRP) (other)
heavy: EVQLLESGGGLVQPGGSLRLSCAASGFTFSSYAMSWVRQAPGKGLEWVSAIIGSGASTYYADSVKGRFTISRDNSKNTLYLQMNSLRAEDTAVYYCAKGWFGGFNYWGQGTLVTVSSASTKGPSVFPLAPSSKSTSGGTAALGCLVKDYFPEPVTVSWNSGALTSGVHTFPAVLQSSGLYSLSSVVTVPSSSLGTQTYICNVNHKPSNTKVDKKV[human IgG1 Fc with changes skipped]GGGGSGGGGSGGGGSQDPYVKEAENLKKYFNAGHSDVADNGTLFLGILKNWKEESDRKIMQSQIVSFYFKLFKNFKDDQSIQKSVETIKEDMNVKFFNSNKKKRDDFEKLTNYSVTDLNVQRKAIHELIQVMAELSPAAKTGKRSRP
light: B1 light
notes: Antibody-cytokine fusion, IgG1 P329G LALA, (G4S)3 linker; S in position 3 of KRKR
B3: P1AF9469 (anti-FAP 4B9 IgG-IFNG, C-terminus AKTGKSKRP) (other)
heavy: EVQLLESGGGLVQPGGSLRLSCAASGFTFSSYAMSWVRQAPGKGLEWVSAIIGSGASTYYADSVKGRFTISRDNSKNTLYLQMNSLRAEDTAVYYCAKGWFGGFNYWGQGTLVTVSSASTKGPSVFPLAPSSKSTSGGTAALGCLVKDYFPEPVTVSWNSGALTSGVHTFPAVLQSSGLYSLSSVVTVPSSSLGTQTYICNVNHKPSNTKVDKKV[human IgG1 Fc with changes skipped]GGGGSGGGGSGGGGSQDPYVKEAENLKKYFNAGHSDVADNGTLFLGILKNWKEESDRKIMQSQIVSFYFKLFKNFKDDQSIQKSVETIKEDMNVKFFNSNKKKRDDFEKLTNYSVTDLNVQRKAIHELIQVMAELSPAAKTGKSKRP
light: B1 light
notes: Antibody-cytokine fusion, IgG1 P329G LALA, (G4S)3 linker; S in position 2 of KRKR
B4: P1AF9470 (anti-FAP 4B9 IgG-IFNG, C-terminus AKTGKRKSP) (other)
heavy: EVQLLESGGGLVQPGGSLRLSCAASGFTFSSYAMSWVRQAPGKGLEWVSAIIGSGASTYYADSVKGRFTISRDNSKNTLYLQMNSLRAEDTAVYYCAKGWFGGFNYWGQGTLVTVSSASTKGPSVFPLAPSSKSTSGGTAALGCLVKDYFPEPVTVSWNSGALTSGVHTFPAVLQSSGLYSLSSVVTVPSSSLGTQTYICNVNHKPSNTKVDKKV[human IgG1 Fc with changes skipped]GGGGSGGGGSGGGGSQDPYVKEAENLKKYFNAGHSDVADNGTLFLGILKNWKEESDRKIMQSQIVSFYFKLFKNFKDDQSIQKSVETIKEDMNVKFFNSNKKKRDDFEKLTNYSVTDLNVQRKAIHELIQVMAELSPAAKTGKRKSP
light: B1 light
notes: Antibody-cytokine fusion, IgG1 P329G LALA, (G4S)3 linker; S in position 4 of KRKR
B5: P1AF9471 (anti-FAP 4B9 IgG-IFNG, C-terminus AKTGSSKRP) (other)
heavy: EVQLLESGGGLVQPGGSLRLSCAASGFTFSSYAMSWVRQAPGKGLEWVSAIIGSGASTYYADSVKGRFTISRDNSKNTLYLQMNSLRAEDTAVYYCAKGWFGGFNYWGQGTLVTVSSASTKGPSVFPLAPSSKSTSGGTAALGCLVKDYFPEPVTVSWNSGALTSGVHTFPAVLQSSGLYSLSSVVTVPSSSLGTQTYICNVNHKPSNTKVDKKV[human IgG1 Fc with changes skipped]GGGGSGGGGSGGGGSQDPYVKEAENLKKYFNAGHSDVADNGTLFLGILKNWKEESDRKIMQSQIVSFYFKLFKNFKDDQSIQKSVETIKEDMNVKFFNSNKKKRDDFEKLTNYSVTDLNVQRKAIHELIQVMAELSPAAKTGSSKRP
light: B1 light
notes: Antibody-cytokine fusion, IgG1 P329G LALA, (G4S)3 linker; S in positions 1 and 2 of KRKR
B6: P1AF9472 (anti-FAP 4B9 IgG-IFNG, C-terminus AKTGKRSSP) (other)
heavy: EVQLLESGGGLVQPGGSLRLSCAASGFTFSSYAMSWVRQAPGKGLEWVSAIIGSGASTYYADSVKGRFTISRDNSKNTLYLQMNSLRAEDTAVYYCAKGWFGGFNYWGQGTLVTVSSASTKGPSVFPLAPSSKSTSGGTAALGCLVKDYFPEPVTVSWNSGALTSGVHTFPAVLQSSGLYSLSSVVTVPSSSLGTQTYICNVNHKPSNTKVDKKV[human IgG1 Fc with changes skipped]GGGGSGGGGSGGGGSQDPYVKEAENLKKYFNAGHSDVADNGTLFLGILKNWKEESDRKIMQSQIVSFYFKLFKNFKDDQSIQKSVETIKEDMNVKFFNSNKKKRDDFEKLTNYSVTDLNVQRKAIHELIQVMAELSPAAKTGKRSSP
light: B1 light
notes: Antibody-cytokine fusion, IgG1 P329G LALA, (G4S)3 linker; S in positions 3 and 4 of KRKR

target: T1, Fc (kih)-IFNGR1/2 heterodimer (P1AF8126); test: SPR, compound immobilised, Fc(kih)-IFNGR1/2 heterodimer as analyte; apparent affinity
Description: (§1) The binding behaviour of IFNG variants towards IFNGR1 and IFNGR1/2 was assessed by surface plasmon resonance (SPR). SPR experiments were performed on a Biacore 8K device at 25° C. with HBS-EP as running buffer (0.01 M HEPES pH 7.4, 0.15 M NaCl, 3 mM EDTA, 0.005% Surfactant P20, Biacore, Freiburg/Germany). […] IFNG mutation series compounds were immobilised at a concentration of 25 nM, 80 s contact time and 10 μL/min. Immobilisation levels up to 450 resonance units (RU) were used. Subsequently, decreasing concentrations (800-3.13 nM) of Fc (kih)-IFNGR1 monomer or Fc (kih)-IFNGR1/2 heterodimer were injected as a second analyte with a flow rate of 30 μL/min over 120 seconds and dissociation was monitored for 500 s. Bulk refractive index differences were corrected for by subtracting the response obtained in a reference flow cell, where no protein was immobilised. The affinity constants were derived from the rate constants by fitting to a 1:1 Langmuir binding.
(§2) To measure binding affinities, compounds of the mutation series were immobilised in the flow cell. As a second analyte Fc (kih)-IFNGR1 monomer or Fc (kih)-IFNGR1/R2 heterodimer were passed through the flow cell and binding affinities (KD) were calculated based on observed association and dissociation constants. Already single point mutations reduced the apparent binding affinities towards the receptors compared to the compound with C-terminal KRKRP.

| Binder | Kd |
| --- | --- |
| B1 | 459 nM |
| B2 | 431 nM |
| B3 | 652 nM |
| B4 | 535 nM |
| B5 | 1420 nM |
| B6 | 885 nM |

target: T2, Fc (kih)-IFNGR1 monomer (P1AF7104); test: SPR, compound immobilised, Fc(kih)-IFNGR1 monomer as analyte; apparent affinity
Description: as §1, §2

| Binder | Kd |
| --- | --- |
| B1 | 614 nM |
| B2 | 597 nM |
| B3 | 708 nM |
| B4 | 604 nM |
| B5 | 1730 nM |
| B6 | 1080 nM |
